# Experimental data from PubChem BioAssay AID761 (NMMLSC, 2007).
# Screen size: about 190,000 compounds; about 400 (0.21%) were called active. Inconclusive results, whose numbers are uncertain, are shown with a selection of clear calls.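 The calls were made as follows: active = percent activity GTP binding at least 20 points away from the 100% baseline, either down as inhibitor or up as activator; inconclusive = compound flagged as likely green fluorescent from well-wide comparison; inactive = the rest.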
# Target: Cell division control protein 42 homolog (Homo sapiens) (UniProt P60953)
# Test: wildtype Cdc42 fluorescent GTP binding changes, either direction – biochemical, multiplex bead flow cytometry, Bodipy-GTP, primary screen (AID 761);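 also: median bead fluorescence of bound Bodipy-FL-GTP at 100 nM; 0% = excess unlabeled GTP control and 100% = no compound control; below 100% means less GTP binding so inhibitor and above means activator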
# Conditions: GST-Cdc42 beads, at 10 µM, actives lie on both sides
# UniProt P60953, sequence (P60953 whole entry, looked up): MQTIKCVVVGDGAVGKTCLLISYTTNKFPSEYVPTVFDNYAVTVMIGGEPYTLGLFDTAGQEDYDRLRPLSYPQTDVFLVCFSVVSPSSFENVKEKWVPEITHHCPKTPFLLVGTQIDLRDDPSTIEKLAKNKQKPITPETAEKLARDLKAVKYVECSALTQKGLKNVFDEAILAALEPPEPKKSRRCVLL
row,Structure (SMILES),percent activity (GTP binding)
1,O=C(NCc1ccccc1)c1cc(=O)c2ccccc2o1,inconclusive: 92%
2,COCCn1c(N)c(C(=O)NCc2cccs2)c2nc3ccccc3nc21,inconclusive: 77%
3,COc1ccc(OC)c(CN2CCC(CNC(=O)Nc3cccc(Cl)c3)CC2)c1,inconclusive: 94%
4,C=CCN1C(=O)/C(=C2/Sc3ccccc3N2CCCS(=O)(=O)O)SC1=S,inconclusive: 83%
5,O=C(Oc1cccc(O)c1)C1CCCCC1,inconclusive: 79%
6,COc1ccc(C2SCCN2C(=S)Nc2ccc(Cl)cc2)cc1 (centres undefined),inconclusive: 101%
7,O=C(NCCc1ccc2c(c1)OCCO2)c1ccc([N+](=O)[O-])cc1Cl,inactive: 90%
8,CCOc1ccccc1N1CCN(C(=O)Nc2ccc(Cl)c(Cl)c2)CC1,inconclusive: 90%
9,Cc1cc(/C=C(/C#N)c2nc3ccccc3[nH]2)c(C)n1-c1cc(C(=O)O)cc(C(=O)O)c1,inconclusive: 81%
10,Cc1nonc1OCCCNc1ccc([N+](=O)[O-])cc1Cl,inactive: 98%
11,O=C(NCCc1ccccc1)C(=O)N/N=C/c1ccccc1C(F)(F)F,inconclusive: 105%
12,CCN(CC)S(=O)(=O)c1cccc(-c2nnc(SCCOc3ccccc3C)o2)c1,inconclusive: 94%
13,CCC(c1nnnn1C1CCCC1)N(Cc1cccs1)Cc1cc2cccc(C)c2[nH]c1=O (centres undefined),inactive: 103%
14,O=S(=O)(Nc1ncn[nH]1)c1ccc2ccccc2c1,active: 121% [activator]
15,O=C(NC1CC1)C1CCN(C2CCN(C(=O)/C=C/c3cccs3)CC2)CC1,inconclusive: 95%
16,CCOC(=O)c1cnn(-c2cc(Oc3ccccc3C)ncn2)c1N,inactive: 95%
17,O=C(CSc1ccc2nnc(-c3ccccc3)n2n1)N1CCCc2ccccc21,inconclusive: 91%
18,CCCn1c(SCC(=O)Nc2cc(S(=O)(=O)N3CCOCC3)ccc2OC)n[nH]c1=O,inactive: 96%
19,O=C(c1nn(Cc2ccccc2)c(=O)c2ccccc12)N1CCN(C/C=C/c2ccccc2)CC1,inactive: 103%
20,CCCCn1c(N)c(N(CC)C(=O)C(c2ccccc2)c2ccccc2)c(=O)[nH]c1=O,inconclusive: 151%

row,Structure (SMILES),percent activity (GTP binding)
1,O=C(CSc1nnc(-c2ccccc2)c(-c2ccccc2)n1)Nc1ncc(Cl)cc1Cl,inconclusive: 104%
2,O=C(CSc1ccc2nnc(-c3ccccn3)n2n1)Nc1ccc2c(c1)OCO2,inconclusive: 80%
3,CCN1CCCC1CN(Cc1cc2ccc(C)cc2[nH]c1=O)C(=S)Nc1ccc(F)cc1 (centres undefined),inactive: 96%
4,CCCNS(=O)(=O)c1ccc2c(c1)CCCN2C(C)=O,inconclusive: 104%
5,Cc1cccc2c(CCNC(=O)c3ccc([N+](=O)[O-])cc3)c[nH]c12,inconclusive: 99%
6,COc1cc(/C=C2/C(=N)N3C=CSC3=NC2=O)ccc1OCCCOc1ccccc1C,inconclusive: 107%
7,CCOC(=O)NC(Nc1ccc(S(N)(=O)=O)cc1)(C(=O)OCC)C(F)(F)F (centres undefined),inconclusive: 110%
8,Cc1ccc(C(=O)C(OC(=O)CCC(=O)Nc2cccc(C)c2)c2ccccc2)cc1 (centres undefined),inconclusive: 106%
9,CCC(CO)NCc1ccccc1OC(C)C (centres undefined),inactive: 98%
10,CNS(=O)(=O)c1cc2c3c(cccc3c1)C(=O)NC2=O,inconclusive: 95%
11,O=C(CSCc1c(Cl)cccc1Cl)N1CCOCC1,inactive: 94%
12,Cc1nnc(SCC(=O)NCc2ccccc2)[nH]c1=O,inconclusive: 102%
13,N=c1c2c3c(sc2ncn1CCCO)CCCC3,inconclusive: 106%
14,COc1nc(-c2ccccc2)ccc1-c1noc(COc2ccccc2)n1,inconclusive: 90%
15,CC(C)CSc1nsc(N)n1,inconclusive: 105%
16,Cc1cc(C)c(S(=O)(=O)Nc2cccc(S(=O)(=O)NC3=NCCC3)c2)c(C)c1,inactive: 91%
17,O=C(Cn1cccc1C(=O)c1ccccc1)NCc1cccc(Cl)c1,inactive: 91%
18,CCCCOC(=O)C1CCCC(C)N1 (centres undefined),inconclusive: 108%
19,Cc1cccc(-c2nnc3n2N=C(c2ccccc2)CS3)c1,inactive: 88%
20,N#C/C(=N\Nc1ccc(S(=O)(=O)N2CCc3ccccc32)cc1)C(N)=S,inconclusive: 92%

row,Structure (SMILES),percent activity (GTP binding)
1,Cc1c(Cl)cccc1N=Cc1ccc([N+](=O)[O-])s1,inconclusive: 111%
2,COc1ccc(-c2nnc(SCC(=O)NNC(=O)Cc3ccccc3)n2C)cc1OC,inconclusive: 103%
3,COc1ccc(Cl)cc1NC(=O)CN(C1CCCCC1)S(C)(=O)=O,inconclusive: 105%
4,Cn1c(N=Nc2ccc(N3CCOCC3)cc2)[n+](C)c2ccccc21,inconclusive: 94%
5,CCOC(=O)Cc1nnc(NC(=O)C(CC)Sc2nnc3c4ccccc4n(C)c3n2)s1 (centres undefined),inconclusive: 96%
6,O=C(NCc1ccccc1)C1=C[C@H](C2CC2)C[C@H](OCCCCO)O1,inactive: 95%
7,O=C(CSc1nc(C2CC2)nc2ccccc12)Nc1ccccc1N1CCOCC1,inactive: 95%
8,CC1=C(C(=O)OCc2ccccc2)C(c2cccnc2)c2c(n(C)c(=O)n(C)c2=O)N1 (centres undefined),inactive: 98%
9,Cn1c(=O)cc(SCC(=O)N2CCN(C(=O)c3ccco3)CC2)c2ccccc21,inconclusive: 106%
10,CCOc1ccc(-n2c(-c3ccco3)n[nH]c2=S)cc1,inconclusive: 80%
11,N#C/C(=C(/O)COc1ccc(Br)cc1)c1nnc2n1CCCCC2,active: 76%
12,Cc1cc(C(=O)CN2C(=O)NC3(CCC(C)CC3)C2=O)c(C)n1C (centres undefined),inconclusive: 97%
13,NNC(=O)c1nc[nH]c1C(=O)Nc1ccccc1[N+](=O)[O-],inconclusive: 86%
14,Cc1cccc(N2CCN(C(=O)/C=C/c3cccs3)CC2C)c1 (centres undefined),inconclusive: 90%
15,COc1ccc(C(=O)OCCNC(=O)c2ccncc2)cc1OC,inactive: 102%
16,Cc1ccccc1C(=O)Nc1nc(=S)ss1,inconclusive: 92%
17,O=C(Cn1cnc2cc([N+](=O)[O-])ccc2c1=O)NCc1ccc(Cl)cc1,active: 77%
18,CCCc1cc2c(cc1NC(=O)c1ccco1)OCO2,inactive: 99%
19,O=S(=O)(/N=C/N1CCOCC1)c1ccc(Cl)cc1,inconclusive: 97%
